# Results published in the RNAGym collection of RNA variant scans (doi:10.7554/elife.90254).
# Read counts are not given, so values of variants with three or more changes are uncertain.
# B1: OR4K15 (parent)
# chain: GUUAACGGUCAUAGGCCAUGGAAACUAGGAGCACCAUUUCGCUGCCAGUGAAGAAAUGAACAAAGAAAAUCUGGGCCAGGCAGGCAUCAAAAGAAAUAGUCUUGCGCUCAACCAGAAAGUCUGUAAUCAUUUUAAGGGUA
# Variants of: B1
# Experiment: self-cleavage, relative activity (ratio to wild type); higher = more cleavage; in vitro, sequencing; the parent is a self-cleaving ribozyme
row,Variant,self-cleavage
1,GCUAACGGUCAUAGACCAUGGAAACUAGGAGCACCAUUUCGCUGCCAGUGAAGAAAUGAACAAAGAAAAUCUGGGCCAGGCGGGCACCAAAAGAAAUAGUCUUGCGCUCAACCAGAAAGUCUGUAAUCAUUCUAAGGGUA,0.13
2,GCUAACGGUCAUAGGCCAUGGAAACUAGGAUCACCAUUUCGCUGCCAGUGAAGAAAUGAACAAAGAAAAUCUGGGCCAGGCAGGCAUCAAAAGAGAUAGUCUUGCGCUCAACCUGAAAGUCUGUAAUCAUUUUAAGGGUG,0.2
3,GCUAACGGUCAUAGGCCAUGGAAACUAGGAGCACCAUUUCGCUGCCAGUGAAGAAAUGAACAAAGAAAAUCUGGGUCAGGCAGGCAUCAAAAGAGAUAGUCUUGCGCUCAACCAGAAAGUCUGUAAUCAUUUUAGGGGUA,0.01
4,GCUAACGGUCAUAGGCCAUGGAAACUAGGAACACCAUUUCGCUGCCAGUGAAGAAAUGAGCAAAGAAAAUCUGGGCCAGGCAGGCAUCAAAAGAAAUAGUCUUGCGCUCAACCAGAAAGUCUGUAAUCAUUUUAAGGGUA,0.59
5,GCUAACGGUCAUAGGCCAUGGAAACUAGGAGCACCAUUUCGCUGCCAGUGAAGAAAUGAACAAAGAAAAUCUGGGCCAGGCAGGCAUCAAUAGAAAUAGUCUCGCGCUCAACCAGAAAGUCUGUAAUCAUUUUAAGGGUA,0.65
6,GCUAACUGUCAUAGGCCAUGGAAACUAGGAGCACCAUUUCGCUGCCAGUGGAGAACUGAACAAAGAAAAUCUGGGCCAGGCAGGCAUCAAAGGAAAUAGUCUUGCGCUCAACCAGAAAGUCUGUAAUCAUUUUAAGGGUA,0.59
7,GCUAACGGUCAUAGGCCAUGGAAACUAGGAGCACCAUUUCGCUGCCAGUGAAGAAAUGAACAAAGAAAAUCUGGGCCAGGCAGGCAUCAAAAGGAAUAGUCUUGCGCUCAUCCAGAAAGCCUGUAAUCAUUUUAAGGGUA,0
8,GCUAACGGUCAUAGGCCAUGGAAACUAGGAGCACCAUUUCGCUGCCAGUGAAGAAAUGAACAAAGAAAAUCUGCGCCAGGCAGGCAUCAAAAGAAAUAGUCUUGCGCUCAACCUGAAAGUCUGUAAUCAUUUUAAGGGUA,0.05
9,GCUAACGGUCAUAGGCCAUGGAAACUAGGAGCACCAUUUCCCUGCCAGUGAAGAAAAGAACAAAGAAAAUCUGGGCCUGGCAGGCAUCAAAAGAAAUAGUCUUGCGCUCGACCAGAAAGUCUGUAAUCAUUUUAAGGGUA,0.05
10,GCUAACGGUCAUAGGCCAUGGAAACUAGGAGCACCAUUUCGCUGCCAGUGAAGAAAUGAACAAAGAAAAUCUGGGCCAGGCAGGCAUCAAAGGAAAUAGUCUUGCGCUCAACCAGAAAGUCUGUAAUCGUUAUAAGGGUA,0.73
11,GCUAACGAUCAUAGGCCAUGGAAACUAGGAGCACCAUUUCGCUGCCAGUGAAGAAAUGAACAAAGAGAAUCUGGGCCAGGCAGGCAUCAAAAGAAGUAGUCUUGCGCUCGACCAGAAGGUCUGUAAUCAUUUUAAGGGUA,0.11
12,GCUAAUGGUCAUAGGCCAUGGAAACUAGGAGCACCAUGCCGCUGCCAGUGAAGAAAUGAACAAAGAAAAUCUGGGCCAGGCAGGCAUCAAAAGAAAUAGUCUUGCGCUCAACCAGAAAGUCUGUAAUCAUUUUAAGGGUA,0.19
13,GCUAACGGUCAUAGGCCAUGGAAACUAGGAGCACCAUUUCGCUGCCAGUGAAGAAAUGAACAAAGAAAAUCUGGGCCAGGCAGGCAUCACAAGAAAUAGUCUUGCGCUCAACCAGAAAGUCUGUGAUCAUUUUAAGGGUA,0.24
14,GCUAACGGUCAUAGGCCAUGGAAACUAGGAGCACCAUUUCGCUGCCAGUGAAGAAAUGAACAAAGAAAAUCUGGGCCAGGCAGGCAUCAAAAGAAAUAGUCUUGCGCUCGACCUGAAAGUCUGUAAUCAUUUUAAGGGUA,0
15,GCCAACGGUCAUAGGCCAUGGAAACUAGGAGCACCAUUUCGCUGCCAGUGAAGAAAUGAACAAAGAAGAUCUGGGCCAGGCAGGCAUCAAAAGAAAUAGUCUUGCGCUCAACCAGGAAGUCUGUAAUCAUUUUAAGGGUA,0.51
16,GCUAACGGUCAUAGGCCAUGGAAACUAGGAGCACCAUUUCGCUGCCAGUGAAGAAAUGAACAAAGAAAAUCUGGGCCAGGCAGGCAUCAAGAGAAAUAGCCUUGCGCUCAACCAGAAAGUCUGUAAUCAUUUUAAGGGUA,0.86
17,GCUAACGGUCAUAGGCCAUGGAAACUAGGAGCACCAUUUCGCUGCCAGUGAAGAAAUGAACAAAGAAAAUCUGAGCCAGGCAGGCAUCAAAAGAAAUAGCCUUGCGCUCAACCAGAAAGUCUGUAAUCAUUCUAAGGGUA,0.27
18,GCUAACGGUCAUAGGCCAUGGAAACUAGGAGCACCAUUUCGCUGCCAGUGAAGAAAUGAACAAAGAAAAUCUGGGCCAGGCAGGCAUCGAAAGAAAUAGUCUUGCGCUCGACCAGAAAGUCUGUAAUCAUUUUAAGGGUA,0.14
19,GCUAACGGUCAUAGGCCAUGGAAACUAGGAGCACCAUUUCGCUGCCAGUGAAGAAAUGAACAAAGAAAAUCUGGGCCAAGCAGGCAUCAAAAGAAAUUGUCUUGCGCUCAACCAGAGGGUCUGUAAUCACUUUAAGGGUA,0.02
20,GCUAACGGUCAUAGGCCAUGGAAACUAGGAGCACCAUUUCGCUACCAGUGAGGAAAUGAACAAAGAAAAUCUGGGCCAGGCAGGCAUCAAAAGAAAUAGUCUUGCGCUCAACCAGAAAGUCUGUAAUCAUUUUAAGGGUA,0.93
21,GCUAACGGUCAUAGGCCAUGGAAACUAGGAGCACCAUUUCGCUGCCAGUGAAGAAAUGAACAAAGAAAAUCUGGGCCAGGCAGGCAUCAAGAGAAAUAGUCUUGCGCACAACCAGAAAGUCUGUAAUCAUUUUAAGGGUA,0.03

row,Variant,self-cleavage
1,GCUAACGGUCAUAGGCCAUGGAAACUAGGAGCACCAUUUCGCUGCCAGUGAAGAAAUGAACAAAGAAAAUCUGGGCCAGGCAGGCAUCAAAAGAAAUAGUCUUGCGCUCAACCAGAAUGUCUGUAAUCAUUUUCAGGGUA,0.31
2,GCUAAUGGUCAUAGGCCAUGGAAACUAGGAGCACCAUUUCGCUGCCAGUGAAGAAAUGAACAAAGAAAAUCUGGGCCAGGCAGGCAUCAAAAGAAAUAGUCUUGCGCUCGACCAGAAAGCCUGUAGUCAUUUUAAGGGUA,0.02
3,GCUAACGGUCAUAGGCCAUGGAAACUAGGAGCACCAUUUCGCUGCCAGUGAAGAAAUGAACAAAAAAAAUCUGGGCCAGGCAGGCAUCGAAAGAAAUAGUCUUGCGCACAACCAGAAAGUCUGUAAUCAUUUUAAGGGUA,0.01
4,GCUAACGGUCAUAGGCCAUGGAAACUAGGAGCACCAUUUCGCUGCCAGUGAAGAAAUGAACAAAGAAAAUCUGGGCCAGGCAGGCAUCAAAGGAAGUAGUCCUGCGCUCAACCAGAAAGUCUGUAAUCAUUUUAAUGGUA,1.59
5,GCUAACGGUCAUAGGCCAUGGAAACUAGGAGCACCAUUUCGCUGCCAGUGAAGAAAUGAACAAAGAAAAUCUGGGCCAGGCAGGCAUCAAAUGAAAUAGUCUUGCGCUCAACCAGAAAGUCUGUAAUAAUUUUAAGGGUA,0.5
6,GCUAACGGACAUAGGCCAUGGAAACUAGGAGCACCAUUUCGCUGCCAGUGAGGAAAUGAACAAAGAAAAUCUGGGCCAGGCAGGCAUCAAAAGAAAUAGUCUUGCGCUCAACCAGAAAGUCUGUAAUCAUUUUAAGGGUA,0.88
7,GCUAACGGUCAUAUGCCAUGGAAACUAGGAGCACCAUUUCGCUGCCAGUGAAGAAAUGUACAAAGAAAAUCUGGGCCAGGCAGGCAUCAAAAGAGAUAGUCUUGCGCUCAACCAGAAGGUCUGUAAUCAUUUUAAGGGUA,0.73
8,GCUAACGGUCAUAGGCCAUGGAAACUAGGAGCACCAUUUCGCUGCCAGUGAAGAAAUGAACAAAGAAAAUCUGGGCCAGGCAGGCAUCAAAAGAAGUAGUCUUGCGCUCAACCAGAAGGUCUGUAAUCAUUUUAAGGGUA,1.66
9,GCUAAUGGUCAUAGGCCAUGGAAACUAGGAGCACCAUUUCGCUGUCUGUGAAGAAGUGAACAUAGAAAAUCUGGGCCAGGCAGGCAUCAAAAGAAAUAGUCUUGCGCUCAACCAGAAAGUCUGUAAUCAUUUUAAGGGUG,1.63
10,GCUAACGGUCAUAGGCCAUGGAAACUAGGAGCACCAUUUCGCUGCCAGUGAAGAAAUGAACAAAGAAAAUCUGGGCCAGGCAGGCAUCAAAAGAAAUAGUCUUGCGCUCAACCAGAAGGUCUGUAAUCAUCUUAAGGGUA,0.16
11,GCUAAAGGUCAUAGGCCAUGGAAACUAGGAGCACCAUUACGCUGCCAGUGAUGAAAUGAACAAAGAAAAUCUGGGCCAGGCAGGUAUCAAAAGAAAUAGACUUGCGCUCAACCAGAAAGUCUGUAAUCAUUUUAAGGGUA,0.53
12,GCUAACGGUCAUAGGCCAUGGAAACUAGGAGCACCAUUUCGCUGCCAGUGAAGAAAUGAACAAAGAAAAUUUGGGCCAGGCAGGCAUCAAAAGAAAUAGUCUUGCGCUCAACCAGAAGGUCUGUAAUCAUUUUAAGGGUA,0.3
13,GCUAACGGCCAUUGGCCAUGGAAACUAGGAGCACCAUUUCGCUGCCAGUGAAGAAAUGAACAAAGAAAAUCUGGGCCAGGCAGGCAUCAAAAGAAAUAGUCUUGCGCUCAACCAGAAAGUCUGUAAUCAUUUUAAGGGUA,1.71
14,GCUAACGGUCAUAGGCCAUGGAAACUAGGAGCACCAUUUCGCUGCCAGUGAAGAAAUGAACAAAGAAAAUCUGGACCAGGCAGGCGUCAAAAGAAAUAGUCUUGCGCUCAACCAGAAAGUCUGUAAUCAUUUUAAGGGUA,0.1
15,GCUAACGGUCAUAGGCAAUGGAAACUAGGAGCGCCAUUUCGCUACCAGUGAAGACAUGAACAAAGAAAAUCUGGGCCAGGCAGGCAUCAAAAGAAAUAGUCUUGCGCUCAACCAGAAAGUCUGUAAUCAUUUUAAGGGUA,0.68
16,GCUAACGGUCAUAGGCCAUGGAAACUAGGAGCACCAUUUCGCUGCCAGUGAAGAAAUGAACAAAGAAAAUCUGGGCCAGGCAGGCAUCAAAAGGAAUAGUCUUGCGCUCAACCAGGAAGUCUGUAAUCAUUUUAAGGGUA,1.44
17,GCUAACGGUCAUAGGCCAUGGAAACUAGGAGCACCAUUUCGCUGCCAGUGAAGAAAUGAACAAAGAAAAUCUGGGACAGGCAGGCAUCAGAAGAAAUAGUCUUGCGCUCAACCAGAAAGUCUGUAAUCAUUAUAAGGGUA,0.21
18,GCUAACGGUCAUAGGCCAUGGAAACUAGGAGCACCAUUUCGCUGCCAGUGAAGAAAUGAACAAAGAAAAUCUGGGCCAGGCAGGCAUCAAGAGAAAUAGUCUUGUGCUCAACCAGAGAGUCUGUAACCAUUCUAAGGGUA,0
19,GCUAACGGUCAUAGGCUGUGGAAACUAGGAGCACCAUUUCGCUGCCAGUGAAGAAGUGAACAAAGAAAAUCUGGGCCAGGCAGGCAUCAAAAGAAAUAGUCUUGCGCUCAACCAGAAAGUCUGUAAUCAUUUUAAGGGUA,1.08
20,GCUAACGGUCAUAGGCCAUGGAAACUAGGAGCACCAUUUCGCUGCCAGUGAAGAAAUAAACAAAGAAAAUCUGGGCCAGGCAGGCAUCAAAAGAAGUAGUCUUGCGCCCAACCAGAAGGUCUGUAAUCAUUUUAAGGGUA,0.01
